From publication PMC4873749, “Novel positive allosteric modulators of GABAA receptors with anesthetic activity” (Scientific Reports, 2016)

Columns and labels:
[1] = target: α1β2Mγ2 (β2N265I) GABAA receptors (Rattus norvegicus, UniProt P62813+P63138, N289I); test: Potentiation of GABA currents in mutant receptor, Xenopus oocytes; settings: mean ± SD, n = 3; for potentiation relative to wild-type α1β2γ2 receptors: 3 μM compound
[2] = target: α1Mβ2γ2 (α1S269I) GABAA receptors (Rattus norvegicus, UniProt P62813+P63138, S296I); test: as above; settings: mean ± SD, n = 3
[3] = target: α1Mβ2Mγ2M (α1S269I, β2N265I, γ2S280I) GABAA receptors (Rattus norvegicus, UniProt P62813+P63138, N289I/S296I); test: Potentiation of GABA currents in triple mutant receptor, Xenopus oocytes; settings: mean ± SD, n = 3; for potentiation relative to wild-type α1β2γ2 receptors: 3 μM compound
[4] = target: α1β2γ2M (γ2S280I) GABAA receptors (Rattus norvegicus, UniProt P18508+P62813+P63138, S318I); test: Potentiation of GABA currents in mutant receptor, Xenopus oocytes; settings: mean ± SD, n = 3
[5] = target: T1, α1-β2M-α1/γ2-β2 concatenated receptors (interface 2 M) (Rattus norvegicus, UniProt P62813+P63138, N289I); test: Potentiation of GABA currents in concatenated receptor mutated at interface 2, Xenopus oocytes; type: cell-based; settings: 3 μM compound, GABA EC0.5–1.5, mean ± SD, n = 3
T1 construct: concatenated to β2M-α1 (triple construct); concatenated to α1 (triple construct); concatenated to α1-β2M (triple construct); concatenated to β2 (tandem construct); concatenated to γ2 (tandem construct); expressed in transfected cells; host or cells: Xenopus laevis oocytes (cRNA injection, 25:25 nM)
From the text: (§1) Each GABAA receptor contains two β+/α− subunit interfaces. Combined mutation at these interfaces greatly reduces the modulatory effects of compounds 31, 132 and 4-O-methylhonokiol. Using α1-β2-α1 and γ2-β2 subunit concatemers, we studied the effects of individual mutated interfaces. We designated receptors containing the mutant in the γ2-β2 construct interface 1 M, and the mutation in the α1-β2-α1 construct interface 2 M (Fig. 5a). The α1-β2M-α1 and γ2-β2M constructs were built, and were co-expressed with non-mutated dual or triple subunit constructs forming α1-β2-α1/γ2-β2M and α1-β2M-α1/γ2-β2 receptors. Both constructs were expressed together to form the double mutant receptor α1-β2M-α1/γ2-β2M.
(§2) Construction of tandem and triple subunit cDNAs. The tandem construct γ2-β2, and triple construct α1-β2-α1 has been described previously.
(§3) The holding potential was −80 mV.

[6] = target: T2, α1-β2M-α1/γ2-β2M concatenated receptors (double M) (Rattus norvegicus, UniProt P62813+P63138, N289I); test: Potentiation of GABA currents in concatenated double mutant receptor, Xenopus oocytes; type: cell-based; settings: 3 μM compound, GABA EC0.5–1.5, mean ± SD, n = 3
T2 construct: concatenated to β2M-α1 (triple construct); concatenated to α1 (triple construct); concatenated to α1-β2M (triple construct); concatenated to β2M (tandem construct); concatenated to γ2 (tandem construct); expressed in transfected cells; host or cells: Xenopus laevis oocytes (cRNA injection, 25:25 nM)
From the text: as §1, §2, §3

α1β2γ2 GABAA receptors [7] = target: T3, α1β2γ2 GABAA receptors (Rattus norvegicus, UniProt P62813+P63138); test: Direct activation (agonism) by compound alone, two-electrode voltage clamp in Xenopus oocytes; type: cell-based; design: expressed in transfected cells; host or cells: Xenopus laevis oocytes (cRNA injection); settings: 30 μM compound, no GABA; mean ± SD, n = 3
α1β2γ2 GABAA receptors [8] = target: T3, α1β2γ2 GABAA receptors; test: Potentiation of GABA-elicited currents, two-electrode voltage clamp in Xenopus oocytes; settings: 3 μM compound + GABA EC0.5, 1 μM Ro 15-1788; mean ± SD, n = 4
[9] = Solubility in the electrophysiology medium; type: physicochemical; settings: limited the highest concentration tested; media with 0.5% DMSO
[10] = target: T4, α1-β2-α1/γ2-β2M concatenated receptors (interface 1 M) (Rattus norvegicus, UniProt P62813+P63138, N289I); test: Potentiation of GABA currents in concatenated receptor mutated at interface 1, Xenopus oocytes; type: cell-based; settings: 3 μM compound, GABA EC0.5–1.5, mean ± SD, n = 3
T4 construct: concatenated to β2-α1 (triple construct); concatenated to α1 (triple construct); concatenated to α1-β2 (triple construct); concatenated to β2M (tandem construct); concatenated to γ2 (tandem construct); expressed in transfected cells; host or cells: Xenopus laevis oocytes (cRNA injection, 25:25 nM)
From the text: as §1, §2, §3

Row | Structure (SMILES) | residual potentiation relative to α1β2γ2 ([1]; 1 μM compound) [%] | modulation relative to wild-type α1β2γ2 receptors ([2]; 1 μM compound) [%] | residual potentiation relative to α1β2γ2 ([3]; 1 μM compound) [%] | modulation relative to wild-type α1β2γ2 receptors ([4]; 1 μM compound) [%] | residual relative potentiation, of concatenated wild-type [5] [%] | modulation relative to α1-β2-α1/γ2-β2 concatenated receptors [6] [%] | potentiation relative to wild-type α1β2γ2 receptors [1] [%] | current elicited by compound alone, of the maximal current amplitude elicited by GABA (α1β2γ2 GABAA receptors [7]) [%] | modulation relative to wild-type α1β2γ2 receptors ([2]; 3 μM compound) [%] | Relative current amplitude in the presence vs. absence of the antagonist Ro 15-1788 (α1β2γ2 GABAA receptors [8]) [%] | potentiation relative to wild-type α1β2γ2 receptors [3] [%] | solubility [9] | residual relative potentiation, of concatenated wild-type [10] [%] | modulation relative to wild-type α1β2γ2 receptors ([4]; 3 μM compound) [%]
1 | C=CCc1ccc(O)c(-c2ccc(OC)c(CC=C)c2)c1 [4-O-methylhonokiol] | 15.6 ± 1.5 | 63 ± 6 | 2.2 ± 0.2 | 79 ± 16 |  |  |  |  |  |  |  |  |  | 
2 | Cc1ccccc1C(=O)N1CCN=C1SCc1cccc(Cl)c1 [compound 31] |  |  |  |  | 51 ± 3 | 1 ± 5 | 10.4 ± 8.5 | 0.3 ± 0.13 | 77 ± 24 | 112 ± 8 | 2.3 ± 0.8 | poor solubility | 28 ± 6 | 87 ± 52
3 | COc1ccc(C)c2sc(N(Cc3cccnc3)C(=O)COc3ccccc3)nc12 [compound 132] |  |  |  |  |  | −2 ± 0.4 | 7.3 ± 6.8 | 0.3 ± 0.13 | 118 ± 44 | 115 ± 14 | −0.4 ± 5.1 | poor solubility |  | 91 ± 21
